Results taken from the supplement of paper PMC4604168 (melanoma cell lines).
Some of the results follow. Repeats are few or missing, and single values can be far off.

Test system: WM3619
Assay: cell count relative to DMSO control; melanoma cells; higher = more viable cells
Conditions: library dose: low library concentration; 72 h
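Also: cell number obtained by counting DAPI-stained nuclei in high-throughput microscope images with image analysis software, screen run in 1,536-well plates.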

| Compound | cell count |
| --- | --- |
| C[C@]12O[C@H](C[C@]1(O)CO)n1c3ccccc3c3c4c(c5c6ccccc6n2c5c31)CNC4=O [Lestaurtinib] + CCc1ccc(CCOc2ccc(CC3SC(=O)NC3=O)cc2)nc1 [pioglitazone] (first compound 0.004 µM, partner dose 2 µM) | 95.6% |
| Cn1cc(C2=C(c3cn(C4CCN(Cc5ccccn5)CC4)c4ccccc34)C(=O)NC2=O)c2ccccc21 [Enzastaurin] + CC1(C)NC(=O)N(c2ccc([N+](=O)[O-])c(C(F)(F)F)c2)C1=O [nilutamide] (first compound 0.8 µM, partner dose 1 µM) | 94.8% |
| N.N.[Cl][Pt][Cl] [cisplatin] + COc1cc(Nc2ncc(F)c(Nc3ccc4c(n3)NC(=O)C(C)(C)O4)n2)cc(OC)c1OC [Tamatinib] (first compound 1.6 µM, partner dose 0.4 µM) | 72.9% |
| C[C@]12O[C@H](C[C@]1(O)CO)n1c3ccccc3c3c4c(c5c6ccccc6n2c5c31)CNC4=O [Lestaurtinib] + O=C(O)c1ccc(-c2c[nH]c3ncc(-c4ccccc4)cc23)cc1C1CCCC1 [GSK650394] (first compound 0.004 µM, partner dose 0.16 µM) | 116% |
| Cn1cc(C2=C(c3cn(C4CCN(Cc5ccccn5)CC4)c4ccccc34)C(=O)NC2=O)c2ccccc21 [Enzastaurin] + NC(=O)Nc1cc(-c2cccc(F)c2)sc1C(=O)N[C@H]1CCCNC1 [AZD7762] (first compound 0.8 µM, partner dose 0.02 µM) | 82.6% |
| Cn1cc(C2=C(c3cn(C4CCN(Cc5ccccn5)CC4)c4ccccc34)C(=O)NC2=O)c2ccccc21 [Enzastaurin] + COc1ccc2c(c1)CCC1C2CCC2(C)C(NCCCCCCN3C(=O)C=CC3=O)CCC12 [U73122] (first compound 0.8 µM, partner dose 0.4 µM) | 107% |
| C[As](C)SC[C@H](NC(=O)CC[C@H](N)C(=O)O)C(=O)NCC(=O)O [Darinaparsin] + c1cc(-c2cnn3cc(-c4ccc(OCCN5CCCCC5)cc4)cnc23)ccn1 [Dorsomorphin] (first compound 0.4 µM, partner dose 0.4 µM) | 92.3% |
| N.N.[Cl][Pt][Cl] [cisplatin] + COC(=O)c1sccc1S(=O)(=O)Nc1ccc(Nc2ccccc2)cc1OC [GSK0660] (first compound 1.6 µM, partner dose 1 µM) | 66.6% |
| C[As](C)SC[C@H](NC(=O)CC[C@H](N)C(=O)O)C(=O)NCC(=O)O [Darinaparsin] + Cc1nc(Nc2ncc(C(=O)Nc3c(C)cccc3Cl)s2)cc(N2CCN(CCO)CC2)n1 [dasatanib] (first compound 0.4 µM, partner dose 0.004 µM) | 96.1% |
| Cn1cc(C2=C(c3cn(C4CCN(Cc5ccccn5)CC4)c4ccccc34)C(=O)NC2=O)c2ccccc21 [Enzastaurin] + Cn1c(=O)n(-c2ccc(C(C)(C)C#N)cc2)c2c3cc(-c4cnc5ccccc5c4)ccc3ncc21 [NVP-BEZ235] (first compound 0.8 µM, partner dose 0.004 µM) | 99.9% |
| Cn1cc(C2=C(c3cn(C4CCN(Cc5ccccn5)CC4)c4ccccc34)C(=O)NC2=O)c2ccccc21 [Enzastaurin] + C=CCNC1=C2C[C@@H](C)C[C@H](OC)[C@H](O)[C@@H](C)/C=C(\C)[C@H](OC(N)=O)[C@@H](OC)/C=C\C=C(/C)C(=O)NC(=CC1=O)C2=O [Tanespimycin] (first compound 0.8 µM, partner dose 0.002 µM) | 75.7% |
| Cn1cc(C2=C(c3cn(C4CCN(Cc5ccccn5)CC4)c4ccccc34)C(=O)NC2=O)c2ccccc21 [Enzastaurin] + Cn1nnc2c(C(N)=O)ncn2c1=O [temozolomide] (first compound 0.8 µM, partner dose 2 µM) | 105% |
| C[C@]12O[C@H](C[C@]1(O)CO)n1c3ccccc3c3c4c(c5c6ccccc6n2c5c31)CNC4=O [Lestaurtinib] + CN(NC(=O)CC(=O)NN(C)C(=S)c1ccccc1)C(=S)c1ccccc1 [STA4783] (first compound 0.004 µM, partner dose 0.006 µM) | 105% |
| C[C@]12O[C@H](C[C@]1(O)CO)n1c3ccccc3c3c4c(c5c6ccccc6n2c5c31)CNC4=O [Lestaurtinib] + C[C@]1(O)C[C@@H](c2nc(-c3ccc4ccc(-c5ccccc5)nc4c3)c3c(N)nccn32)C1 [OSI906] (first compound 0.004 µM, partner dose 0.4 µM) | 111% |
| C[As](C)SC[C@H](NC(=O)CC[C@H](N)C(=O)O)C(=O)NCC(=O)O [Darinaparsin] + C/C(O)=C(\C#N)C(=O)Nc1cc(Br)ccc1Br [LFM-A13] (first compound 0.4 µM, partner dose 2 µM) | 120% |
| C[C@]12O[C@H](C[C@]1(O)CO)n1c3ccccc3c3c4c(c5c6ccccc6n2c5c31)CNC4=O [Lestaurtinib] + Nc1ccn([C@@H]2O[C@H](CO)[C@@H](O)C2(F)F)c(=O)n1 [gemcitabine] (first compound 0.004 µM, partner dose 0.0004 µM) | 65.8% |
| N.N.[Cl][Pt][Cl] [cisplatin] + C[As](C)SC[C@H](NC(=O)CC[C@H](N)C(=O)O)C(=O)NCC(=O)O [Darinaparsin] (first compound 1.6 µM, partner dose 0.4 µM) | 121% |
| Cn1cc(C2=C(c3cn(C4CCN(Cc5ccccn5)CC4)c4ccccc34)C(=O)NC2=O)c2ccccc21 [Enzastaurin] + O=C(Nc1cccc(Cl)c1)Nc1ncc(CCNc2ncnc3ccsc23)s1 [SNS314] (first compound 0.8 µM, partner dose 0.0008 µM) | 109% |
| N.N.[Cl][Pt][Cl] [cisplatin] + O=C(Nc1ccccc1)c1cc([N+](=O)[O-])ccc1Cl [GW9662] (first compound 1.6 µM, partner dose 2 µM) | 92.5% |
| Cn1cc(C2=C(c3cn(C4CCN(Cc5ccccn5)CC4)c4ccccc34)C(=O)NC2=O)c2ccccc21 [Enzastaurin] + Cn1cc(/C=C2\C(=O)Nc3cccnc32)c2ccccc21 [GW441756] (first compound 0.8 µM, partner dose 0.4 µM) | 92.8% |
| C[C@]12O[C@H](C[C@]1(O)CO)n1c3ccccc3c3c4c(c5c6ccccc6n2c5c31)CNC4=O [Lestaurtinib] + C=CCNC1=C2C[C@@H](C)C[C@H](OC)[C@H](O)[C@@H](C)/C=C(\C)[C@H](OC(N)=O)[C@@H](OC)/C=C\C=C(/C)C(=O)NC(=CC1=O)C2=O [Tanespimycin] (first compound 0.004 µM, partner dose 0.002 µM) | 115% |
| N.N.[Cl][Pt][Cl] [cisplatin] + C[C@@H]1CCN(C(=O)CC#N)C[C@@H]1N(C)c1ncnc2[nH]ccc12 [CP690550] (first compound 1.6 µM, partner dose 1 µM) | 92.6% |
| C[C@]12O[C@H](C[C@]1(O)CO)n1c3ccccc3c3c4c(c5c6ccccc6n2c5c31)CNC4=O [Lestaurtinib] + CCCS(=O)(=O)Nc1ccc(F)c(C(=O)c2c[nH]c3ncc(Cl)cc23)c1F [PLX4720] (first compound 0.004 µM, partner dose 0.08 µM) | 114% |
| C[C@]12O[C@H](C[C@]1(O)CO)n1c3ccccc3c3c4c(c5c6ccccc6n2c5c31)CNC4=O [Lestaurtinib] + O=C(Nc1cccc(Cl)c1)Nc1ncc(CCNc2ncnc3ccsc23)s1 [SNS314] (first compound 0.004 µM, partner dose 0.0008 µM) | 125% |
| C[C@]12O[C@H](C[C@]1(O)CO)n1c3ccccc3c3c4c(c5c6ccccc6n2c5c31)CNC4=O [Lestaurtinib] + Cc1cc(SCc2sc(-c3ccc(C(F)(F)F)c(F)c3)nc2C)ccc1OCC(=O)O [GW0742] (first compound 0.004 µM, partner dose 2 µM) | 97.7% |
| N.N.[Cl][Pt][Cl] [cisplatin] + C=CCNC1=C2C[C@@H](C)C[C@H](OC)[C@H](O)[C@@H](C)/C=C(\C)[C@H](OC(N)=O)[C@@H](OC)/C=C\C=C(/C)C(=O)NC(=CC1=O)C2=O [Tanespimycin] (first compound 1.6 µM, partner dose 0.002 µM) | 66.1% |
| C[As](C)SC[C@H](NC(=O)CC[C@H](N)C(=O)O)C(=O)NCC(=O)O [Darinaparsin] + Cn1c(Nc2ccc(C(F)(F)F)cc2)nc2cc(Oc3ccnc(-c4ncc(C(F)(F)F)[nH]4)c3)ccc21 [CHIR265] (first compound 0.4 µM, partner dose 0.08 µM) | 68% |
| C[C@]12O[C@H](C[C@]1(O)CO)n1c3ccccc3c3c4c(c5c6ccccc6n2c5c31)CNC4=O [Lestaurtinib] + COc1ccc(-c2ccc3c(N4CCOCC4)nc(N4C[C@@H](C)O[C@@H](C)C4)nc3n2)cc1CO [KU0063794] (first compound 0.004 µM, partner dose 0.02 µM) | 83.9% |
| C[C@]12O[C@H](C[C@]1(O)CO)n1c3ccccc3c3c4c(c5c6ccccc6n2c5c31)CNC4=O [Lestaurtinib] + c1cc(-c2cnn3cc(-c4ccc(OCCN5CCCCC5)cc4)cnc23)ccn1 [Dorsomorphin] (first compound 0.004 µM, partner dose 0.4 µM) | 108% |
